Measured values taken from PubChem BioAssay (NCI).
Values joined by “and” are separate entries in the source; they are usually repeats but may differ in a detail not shown here. Identical values can stand only once.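 Where inhibition never reached the appropriate level, the endpoint shown equals the highest concentration tested. Otherwise, values were interpolated linearly from a five-concentration, 48-hour dose response in 96-well plates. GI50 is the concentration that inhibits growth by half. Definition used: TGI = concentration required for complete inhibition of growth.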

test system: NCI-H322M lung; test: DTP human tumour cell line panel, 48 h

First: Oc1ccccc1/C=N\NC(=S)N/N=C/c1ccccc1O
Second: NC(N)=Nc1ccc(/C=C2\C=Cc3ccccc32)cc1
The GI50 of the first is 7.2-fold lower: 0.617 µM for the first, 4.47 µM for the second.

Going from `C=CC(=O)Nc1cccc(Oc2nc(Nc3ccc(N4CCN(C)CC4)cc3OC)ncc2Cl)c1` to `Cn1c(=O)c(Oc2ccc(F)cc2F)cc2cnc(NC3CCOCC3)nc21`, the GI50 rises from 0.792 µM to over 25 µM.

Going from `COc1ccc(Cn2cc3c(c2-c2cc(OC)c(OC)c(OC)c2)CCc2c(CO)noc2-3)cc1` to `COc1cc2c(c(OC)c1OC)-c1c(c3ccc([N+](=O)[O-])cc3c(=O)n1CCCN)C2=O`, the GI50 rises from 0.616 µM to 9.57 µM (16-fold).

Going from `Cc1ccsc1-c1ccc2c(c1)COC2(CCCN(C)C)c1ccc(F)cc1` (stereo not given) to `Cn1c(-c2c(N)n(Cc3ccc(F)cc3)c3nc(C#N)c(C#N)nc23)nc2ccccc21`, the GI50 falls from 2.65 µM to 0.625 µM (4.2-fold).

Going from `O=c1oc2ccc(Br)cc2c(=O)n1-c1ccc(Cl)cc1F` to `O=C1CC(N2C(=O)/C(=C/C(Cl)=C\c3ccc([N+](=O)[O-])cc3)SC2=S)C(=O)N1c1ccc(O)cc1` (stereo not given), the GI50 rises from 0.564 µM to 2.34 µM (4.1-fold).

Compared with `CC(C)Cc1ccc(C(C)C(=O)NCc2ccc(Cn3c(=O)sn(CCCI)c3=O)cc2)cc1` (stereo not given), `CC(=O)N[C@@H](Cc1ccc(OP(=O)(O)O)cc1)C(=O)N[C@H]1CCC(=O)N2CCC[C@@H](C(=O)NCc3ccccc3)N2C1=O` is higher in GI50: 1.54 µM for the first, over 23.2 µM for the second.

Compared with `CN1CCN(CCCN2c3ccccc3Sc3ccc(Cl)cc32)CC1`, `CC(C)C(=O)c1c(C(F)(F)F)n([O-])c2ccccc2[n+]1=O` is 18-fold lower in GI50: 50.5 µM for the first, 2.77 µM for the second.

`Nc1ncn([C@H]2C[C@H](OP(=O)(O)OC[C@H]3O[C@@H](n4cnc5c(=O)[nH]c(N)nc54)C[C@@H]3O)[C@@H](CO)O2)c(=O)n1` and `CN(C)C=Nc1c(I)cc(I)c(CCC(=O)O)c1I` cannot be ordered by GI50: over 100 µM for the first, over 100 µM for the second.

`CCCCCCCCCCCCCCCCN(CC)CC` and `CC[PH+](CC)CC.CC[PH+](CC)CC.[Au]` are within 1.5-fold of each other in GI50: 12.6 µM for the first, 18.3 µM for the second.

`O=C([CH-]C(=O)c1ccccc1)c1ccccc1.O=C([CH-]C(=O)c1ccccc1)c1ccccc1.O=C([CH-]C(=O)c1ccccc1)c1ccccc1.[Cl-].[Hf+4]` was tested, and the GI50 was 25.3 µM.

First: Oc1ccccc1/C=N\NC(=S)N/N=C/c1ccccc1O
Second: C/C(=C\C(=N\NC(=N)N)c1ccccc1)c1ccccc1
The TGI of the first is 5.2-fold higher: 11.7 µM for the first, 2.25 µM for the second.

Compared with `COc1ccc2c(c1)[n+]([O-])c(/C(C)=N/NC(=O)c1ccccc1O)c(C)[n+]2[O-]`, `COc1ccc(-c2nc3c(C(=O)NCCN(C)C)cccc3c3ccccc23)cc1` is lower in TGI: over 100 µM for the first, 23 µM for the second.

Going from `C=CC(=O)Nc1cccc(Oc2nc(Nc3ccc(N4CCN(C)CC4)cc3OC)ncc2Cl)c1` to `O=S(=O)(c1cc(Cl)ccc1Cl)N1CCN(c2cccc(Cl)c2)CC1`, the TGI rises from 4.92 µM to over 100 µM.

`CC(=O)n1[nH]c(=O)n(-c2ccccc2)c1=O` and `O=C(O)CN(c1ccc(F)cc1)S(=O)(=O)c1ccccc1` cannot be ordered by TGI: over 100 µM for the first, over 100 µM for the second.

`O=C1C=C(c2ccccc2)O/C1=C\C(=O)c1ccc(Cl)cc1` and `O=c1[nH]c(=O)n(CCOc2ccc(Cl)cc2)cc1Nc1ccccc1` cannot be ordered by TGI: over 100 µM for the first, over 100 µM for the second.

Going from `COc1ccc(Cn2cc3c(c2-c2cc(OC)c(OC)c(OC)c2)CCc2c(CO)noc2-3)cc1` to `COc1cc(CNc2cnc3ccc(N)cc3n2)cc(OC)c1OC`, the TGI rises from 38.8 µM to over 100 µM.

Compared with `O=[N+]([O-])/C(Cl)=C/C(=C1/Nc2ccccc2O1)[N+](=O)[O-]`, `Cn1c2cn[nH]c(=O)c2c2ccc3ccccc3c21` is higher in TGI: 30.6 µM for the first, over 100 µM for the second.

Going from `CCCCCCCCCCCCSC(=S)c1c(C)[nH]n(CCCCCCCCCCCC)c1=O` to `CCCCCCCCCCCCCCCCN(CC)CC`, the TGI falls from over 100 µM to 25.2 µM.

`NC(=O)CCC(NC(=O)c1c2ccccc2nc2ccccc12)C(=O)O` (stereo not given) and `O=C(Nc1cccc(C(=O)NCCCO)c1)/C(=C/c1ccccc1)NC(=O)c1ccccc1` cannot be ordered by TGI: over 100 µM for the first, over 100 µM for the second.

`Cc1ccccc1Nc1nc(NNC(=O)Cc2ccccc2)nc(NNC(=O)c2ccncc2)n1` and `CN(C)c1ccc(/C=C(\NC(=O)c2ccccc2)C(=O)Nc2cccc(C(=O)NCCCO)c2)cc1` cannot be ordered by TGI: over 10 µM for the first, over 100 µM for the second.

`CC(=O)OCC1OC(n2ncc(=O)[nH]c2=O)C(OC(C)=O)C1OC(C)=O` (stereo not given) and `Nc1ncn([C@H]2C[C@H](OP(=O)(O)OC[C@H]3O[C@@H](n4cnc5c(=O)[nH]c(N)nc54)C[C@@H]3O)[C@@H](CO)O2)c(=O)n1` cannot be ordered by TGI: over 100 µM for the first, over 100 µM for the second.

Going from `CCOC(=O)C(NC(=O)CC)(Nc1ccc(F)cc1F)C(F)(F)F` (stereo not given) to `CC(C)C(=O)c1c(C(F)(F)F)n([O-])c2ccccc2[n+]1=O`, the TGI falls from over 100 µM to 11.2 µM.

Compared with `Cc1ccsc1-c1ccc2c(c1)COC2(CCCN(C)C)c1ccc(F)cc1` (stereo not given), `CN1NC(c2ccccc2)=C(C#N)C(=O)CC1c1ccc(F)cc1` (stereo not given) is higher in TGI: 13.8 µM for the first, over 100 µM for the second.

`Nc1cc(Cl)ccc1SSc1ccc(Cl)cc1N` and `O=c1oc2ccc(Br)cc2c(=O)n1-c1ccc(Cl)cc1F` cannot be ordered by TGI: 36.6 µM for the first, over 27.3 µM for the second.

Going from `CC(=O)NC1COC(COC(=O)CCCCCCCCCCNC(=O)c2ccc([N+](=O)[O-])c3c(=O)c4ccccc4[nH]c23)C(O)C1OC(C)C(=O)NC(C(=O)NC(CCC(N)=O)C(=O)OCc1ccccc1)C(C)C` (stereo not given) to `CC(=O)N[C@@H](Cc1ccc(OP(=O)(O)O)cc1)C(=O)N[C@H]1CCC(=O)N2CCC[C@@H](C(=O)NCc3ccccc3)N2C1=O`, the TGI rises from 25 µM to over 25 µM.

`CN(C)C(=NC#N)N(Cc1ccccc1)Cc1ccccc1` and `CN(/N=C\c1ccnc2ccccc12)c1ccccc1` cannot be ordered by TGI: over 100 µM for the first, over 100 µM for the second.

`CCOC(=O)N/N=C(\CC)OCC` and `CCOC(=O)C12CC(C)=C(C)CC1CCCc1ccccc12` (stereo not given) cannot be ordered by TGI: over 100 µM for the first, over 100 µM for the second.

First: Cc1nc2c3c(ccc2[nH]c1=O)C(=O)c1ccccc1C3=O
Second: Cn1c(-c2c(N)n(Cc3ccc(F)cc3)c3nc(C#N)c(C#N)nc23)nc2ccccc21
The TGI of the first is higher: over 100 µM for the first, 4.87 µM for the second.

`Cc1cc2c(cc1Cl)SC(NNC1=NCCN1)=NS2(=O)=O` and `Cc1cc(=O)n2c3c(c4c(cc13)c(CN(C)C)cc(=O)n4C)OC2` cannot be ordered by TGI: over 10 µM for the first, over 100 µM for the second.

Going from `COc1cc2c(c(OC)c1OC)-c1c(c3ccc([N+](=O)[O-])cc3c(=O)n1CCCN)C2=O` to `COc1ccc2c(c1OC)C(=O)N/C2=C\c1c(CCN(C)C)cc2c(c1OC)OCO2`, the TGI rises from 17.6 µM to over 100 µM.

`CC1=N[C@@](C)(C2CC3C=CC2C3=O)COC1=O` (stereo not given in full) and `O=C1CC2CC(CC3(CO3)C2)C1F` (stereo not given) cannot be ordered by TGI: over 100 µM for the first, over 100 µM for the second.

`CCC1CCC2c3c([nH]c4ccc(C)cc34)C3C(=O)N(N(C)C)C(=O)C3C2C1` (stereo not given) and `Cc1cn(Cc2cn(CC3OC(n4cc(C)c(=O)[nH]c4=O)CC3O)nn2)c(=O)[nH]c1=O` (stereo not given) cannot be ordered by TGI: over 100 µM for the first, over 100 µM for the second.

`Cn1c(=O)c(Oc2ccc(F)cc2F)cc2cnc(NC3CCOCC3)nc21` and `COC(=O)C1[C@H](c2ccc3c(c2)OCO3)OC(=O)[C@]1(C(=O)OC)C(=O)c1ccc(OC)c(OC)c1` (stereo not given in full) cannot be ordered by TGI: over 25 µM for the first, over 100 µM for the second.

`CC(C)Cc1ccc(C(C)C(=O)NCc2ccc(Cn3c(=O)sn(CCCI)c3=O)cc2)cc1` (stereo not given) and `c1ccc2c(CNCCCCCCCCNCc3cccc4ccccc34)cccc2c1` are within 1.5-fold of each other in TGI: 2.95 µM for the first, 3.65 µM for the second.

`COc1cccc(C2SCc3nc4ccccc4n32)c1` (stereo not given) and `C=CC1(c2ccc3ccccc3c2)OCC(CC)O1` (stereo not given) cannot be ordered by TGI: over 100 µM for the first, over 100 µM for the second.

`O=C1C(c2ccccc2)=C(c2ccccc2)C(c2ccc(Sc3ccc(C4=C(c5ccccc5)C(=O)C(c5ccccc5)=C4c4ccccc4)cc3)cc2)=C1c1ccccc1` and `O=C([CH-]C(=O)c1ccccc1)c1ccccc1.O=C([CH-]C(=O)c1ccccc1)c1ccccc1.O=C([CH-]C(=O)c1ccccc1)c1ccccc1.[Cl-].[Hf+4]` cannot be ordered by TGI: over 100 µM for the first, over 100 µM for the second.

Compared with `O=c1[nH]c2c(c(=O)[nH]1)C(c1ccc([N+](=O)[O-])cc1)c1c([nH]c(=O)[nH]c1=O)O2`, `N#Cc1c(-c2ccc(Cl)cc2)c2c([nH]c1=O)-c1cc([N+](=O)[O-])ccc1CCC2` is lower in TGI: over 100 µM for the first, 48.7 µM for the second.

`C=CCCCC1(C)CCNC1=S` (stereo not given) and `O=C(O)C12CCC(CC1=O)C2` (stereo not given) cannot be ordered by TGI: over 100 µM for the first, over 100 µM for the second.

`CCC12C=CCN3CCC4(c5cc(C(c6ccc(OC)cc6)C6Cc7ccccc7N6)c(OC)cc5N(C)C4C(O)(C(=O)OC)C1O)C32` (stereo not given) and `COc1cc(/C=C2\N=C(c3ccccc3)N(c3nc4ccc(Sc5ccccc5)cc4[nH]3)C2=O)cc(OC)c1OC` cannot be ordered by TGI: over 100 µM for the first, over 100 µM for the second.

First: CS(=O)(=O)O[C@H]1[C@H](O)c2ccccc2[C@@H]1N=[N+]=[N-]
Second: Cc1ccc2c3c1[C@@H]1O[C@@H]1c1cccc(c1-3)[C@@H]1O[C@H]21
The TGI of the first is higher: over 100 µM for the first, 29.8 µM for the second.

First: CN1CCN(CCCN2c3ccccc3Sc3ccc(Cl)cc32)CC1
Second: CC(C(=O)n1ccnc1)N1c2ccccc2Sc2ccccc21 (stereo not given)
The TGI of the first is lower: 81.9 µM for the first, over 100 µM for the second.

`O=C(O)CCN(CCCN(CCC(=O)O)CCC(=O)O)CCC(=O)O` and `CN(C)C=Nc1c(I)cc(I)c(CCC(=O)O)c1I` cannot be ordered by TGI: over 100 µM for the first, over 100 µM for the second.

Compared with `O=C1CC(N2C(=O)/C(=C/C(Cl)=C\c3ccc([N+](=O)[O-])cc3)SC2=S)C(=O)N1c1ccc(O)cc1` (stereo not given), `NC(N)=Nc1ccc(/C=C2\C=Cc3ccccc32)cc1` is 2.6-fold higher in TGI: 6.67 µM for the first, 17.5 µM for the second.

Compared with `O=C1CC(CC(OCc2ccccc2)C(OCc2ccccc2)C(COCc2ccccc2)OCc2ccccc2)CC(=O)N1` (stereo not given), `CC[PH+](CC)CC.CC[PH+](CC)CC.[Au]` is lower in TGI: over 100 µM for the first, 32.4 µM for the second.

With `O=C1CC(CC(OCc2ccccc2)C(OCc2ccccc2)C(COCc2ccccc2)OCc2ccccc2)CC(=O)N1` (stereo not given) the GI50 was > 100 µM and 27.3 µM.
For `CC1Cc2ccccc2N1C(=O)Cc1nc(N2CCOCC2)cc(=O)[nH]1` (stereo not given), the GI50 was 8.19 µM and 14 µM.

`CC1Cc2ccccc2N1C(=O)Cc1nc(N2CCOCC2)cc(=O)[nH]1` (stereo not given) was tested, and the TGI was 64.7 µM and > 100 µM.
